Data published in the RNAGym collection of RNA variant scans (doi:10.7554/elife.90254).
The source gives no read counts; variants with many changes may rest on few reads.

B1: OR4K15 (parent)
chain: GUUAACGGUCAUAGGCCAUGGAAACUAGGAGCACCAUUUCGCUGCCAGUGAAGAAAUGAACAAAGAAAAUCUGGGCCAGGCAGGCAUCAAAAGAAAUAGUCUUGCGCUCAACCAGAAAGUCUGUAAUCAUUUUAAGGGUA

Variants of: B1
Assay: self-cleavage, relative activity (ratio to wild type); higher = more cleavage; in vitro, sequencing; the parent is a self-cleaving ribozyme

Variant	self-cleavage
GUUAACGGUCGUAGGCCACGGAAACUAGGAGCACCAUUUCGCUGCCAGUGAAGAAAUGAACAAAGAAAAUCUGGGCCAGGCAGGCAUCAAAAGAAAUAGUCUUGCGGUCAACCAGAAAGUCUGUAAUCAUUUUAAGGGUA [A11G U19C C107G]	0.06
GUUAACGGUCAUAGGCCAUGGAAACUAGGAGCACCAUUUCGCUGCCAGUGAAGAAAUGAACAAAGAGAAUCAGGGCCAGGCAGGCAUCAAAAGAAAUAGUCUUGCGCUCAACCAGGAAGUCUGUAGUCAUUUUAAGGGUA [A67G U72A A116G A126G]	0.1
GUUAGCGGUCAUAGGCCAUGGAAACUAGGAGCACCAUUUCGCUGCCAGUGAAGAAAUGAACAGAGAAAAUCUGGGCCAGGCAGGCAUCAAAAGAAAUAGUCUUGCGCUCAACCAGAGAGUCUGUAAUCAUUUUAAGGGUA [A5G A63G A117G]	1.58
GUUAGCGGUCAUAGGCCAUGGAGACUAGGAGCACCUUUUCGCUGCCAGUGAAGAAAUGAACAAGGAAAAUCUGGGCCAGGCAGGCAUCAAAAGAAAUAGUCUUGCGCUCAACCAGAAAGUCUGUAAUCAUUUUAAGGGUA [A5G A23G A36U A64G]	0.75
GUUAACGGCCAUAGGCCAUGGAAACUAGUAGCACCAUUUCGCCGCCAGUGAAGAAAUGAACAAAGAAAAUCUGGGCCAGGCAGGCAUCAAAAGAAAUGGUCUUGCGCUCAACCAGAAAGUCUGUAAUCAUUUUAAGGGUA [U9C G29U U43C A98G]	0.36
GUUAACGGUCAUAGGCCAUGGAAACUAGGAGCACCAUUUCGCUGCCAGUGAAGAAAUGAACAAAGAAAAUCAGGGCCAGGCAGGCAUCAAAAGAAGUAGUCUUACGCUCAACCAGAAAGUCUGUAAUCAUUUUAAGGGUA [U72A A96G G104A]	0
GUUAACGGUCAUAGGCCCUGGAAACUAGGAGCACCAUUUCGCUGCCAGUGAAGAAAUGAACAAAGAAAAUCUGGGCCAGACAGGCAUCAAAAGAAAUAGUCUUGCGCUCAACCAGAAAGUCUGUAGUCAUUUUAAGGGUA [A18C G80A A126G]	0.15
GUUAACGCUCAUAGGCCAUGGAAACUAGGAGCACCAUUUCGCUGCCAGUGAAGAGAUGAGCAAAGAAAAUCUGGGCCAGGCAGGCAUCAAAAGAAAUAGUCUUGCGCUCAACCAGAAAGUCUGUAAUCAUUUUAAGGGUA [G8C A55G A60G]	1.74
GCUAACGGUCAUAGGCCAAGGAAACUAGGAGCACCAUUUCGCUGCCAGUGAAGAAAUGAACAAAGAAAAUCUGGGCCAGGCAGGCAUCAAAAGAAAUAGUCUUGCGCUCAACCAGAAAGUCUGUAGUCAUUUUAAGGGUA [U2C U19A A126G]	1.75
GUUAACGGUCAUAGGCCAUGGAAACUAGGAGCACCAUUUCGCUGCCAGUGAAGAAAUGAACAAAGAAAAUCUGGGCCAGGCAGGCAUCAAAAGAAGUAGUCUUGCGCUCAACCAGAAAGACUGUAAUCGUUUUAAGGGUA [A96G U120A A129G]	1.64
GUUAACGGUCAUAGGCCGUGGGAACUAGGAGCACCAUUUCGCUGCCAGUGAAGAAAUGAACAAAGAAAAUCUGGGCCAGGCAGGCAUCAAAAGAAAUAGUCUUGCGCUCAGCCAGAAAGUCUGUAAUCAUUUUAAGGGUA [A18G A22G A111G]	0.11
GUUAACGGUCAUAGGCCAUGGAAACUAGGAGCACCAUUUCGCUGCCAGUGAAGAAAUGGACAAAGAAAAUCUGGGCCAGGCAGGCAUCAAAAGGAAUAGUCUUGCGCUCAACCAGAAAGUCUGUAAUCGUUUUAAGGGUA [A59G A94G A129G]	0.48
GUUAACGGUCAUAGGCCAUGGAAACUAGGAGCACCAUUUCGCUACCAGUGAAGAAAUGAGCAAAGAAAAUCUGGGCCAGGCAGGCAUCAAAAGUAAUAGUCUUGCGCUCAGCCAGAAAGUCUGUAAUCUUUUUAAGGGUA [G44A A60G A94U A111G A129U]	0.01
GUUAACGGUCACAGGCCAUGGAAACUAGGAGCACCAUUUCGCUGCCAGUGAAGAAAUGAACAAAGAAAAUCUGGGCCAGGCAGGCAUCAAAAGGAGUAGUCUUGCGCUCAACCAGGAAGUCUGUAAUCAUUUUUAGGGUA [U12C A94G A96G A116G A134U]	0.89
GUUAACGGUCAUAGGCCAUGGAAACUAGGGGCACCAUUUCGCUGCCCGUGAAGAAAUGGUCAAAGAAAAUCUGGGCCAGGCAGGCAUCAAAAGAAAUAGUCUUGCGCUCAACCAGAAAGUCUGUAAUCAUUUUAAGGGUA [A30G A47C A59G A60U]	0.79
GUUAACGGUCAUAGGCCAUGGAAACUAGGAGCACCAUUUCGCUGCCAGUGAAGAAAUGAACAAAGAAAGUCCGGGCCAGGCAGGCAUCUAAAGAAAUAGUCUUGCGCUCAACCAGAAAGUCUGUAAUCAUUUUAAGGGUA [A69G U72C A89U]	0.25
GUUAACGGUCAUAGGCCAUGGAAACUAGGAGCACCAUUUCGCUGCCAGUGAAGAAAUGAACAAAGAAAAUCUGGGCCAGGCAGGCAACAAAAGAAAUAGUCUUGCGCUCAACCAGAAAGUCUGAAAUCAUUCUAAGGGUA [U87A U124A U132C]	0.51
GUUAACGGCCAUAGGCCACGGAAACUGGGAGCACCAUUUCGCUGCUAGUGAAGAAAUGAACAAAGAAAAUCUGGGCCAGGCAGGCAUCAAAAGAAAUAGUCUUGCGCUCAACCAAAAAGUCUGUAAUCACUUUAAGGGUA [U9C U19C A27G C46U G115A U130C]	0.02
GUUAACGGUCAUAGGCCAUGGAAACUAGGAGCACCAUUUCGCUGCCGGUGAAGAAAUGAACAAAGAAAAUCUGGGCCAGGCAGGCAUCAAAAGAAAUAGCCUCGCGCUCAGCCAGAAAGUCUGUAAUCAUUUUAAGGGUA [A47G U100C U103C A111G]	0
GUUAACGGUCAUAGGCCGUGGAAACUAGGAGCACCUUUUCGCUGCCAGUGAAGAAAUGAACAAAGAAAAUCUGGGCCAGGCAGGCAUCAAAAGAAAUAGUCUUGCGCUCAACCAGAAAGUCCGUAAUCAUUUUAAGGGUA [A18G A36U U122C]	1.8
